By IC50 is meant the dose at which the fit gives 50% viability; fits outside the tested doses are given as limits. For AUC the same curve is integrated over the 256-fold range of doses and scaled to a fraction; the more sensitive the line, the further below 1. An inferred top dose comes from the curve model; the source does not state it. Drugs with an entry number were screened twice under separate entries, and the two screens often disagree.
Compound: Cn1cnc2c(F)c(Nc3ccc(Br)cc3Cl)c(C(=O)NOCCO)cc21 [AZD6244]
Assay: Viability of human cancer cell lines after 72 h of drug (GDSC screen)
Settings: top dose 4 µM; screen: GDSC drug entry 1498; top dose inferred
Procedure: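 Human cancer cell lines in 384-well plates, medium with 10% serum, drug for 72 h over a 256-fold dose range (nine 2-fold or five 4-fold steps up to the top dose). Adherent lines were fixed and stained with the nucleic acid dye Syto60, suspension lines read with resazurin; signal relative to control wells, capped at 0 and 100%. One two-parameter sigmoid per drug and line, fitted in a mixed model over all curves with the slope shared within a line.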

Cell Line	AUC	IC50 [µM]
A549 (lung adenocarcinoma, adherent)	0.42	0.147
BALL-1 (B-cell leukaemia, suspension)	0.997	> 4
BT-549 (breast, adherent)	0.844	> 4
CL-34 (large intestine, adherent)	0.281	0.0558
CL-40 (large intestine, adherent)	0.653	0.888
CML-T1 (chronic myeloid leukaemia, suspension)	0.938	> 4
COR-L32 (small cell lung carcinoma, suspension)	0.835	> 4
DIFI (large intestine, adherent)	0.89	> 4
H2810 (mesothelioma, adherent)	0.905	> 4
HCC-366 (non-small cell lung carcinoma, adherent)	0.942	> 4
IGROV-1 (ovary, adherent)	0.91	> 4
JEKO-1 (B-cell lymphoma, suspension)	0.979	> 4
JHOS-4 (ovary, adherent)	0.905	> 4
Jurkat (T-cell leukaemia, suspension)	0.981	> 4
KARPAS-1106P (B-cell lymphoma, suspension)	0.99	> 4
KATOIII (stomach, semi-adherent)	0.98	> 4
KNS-62 (lung squamous cell carcinoma, adherent)	0.356	0.0833
MEL-HO (melanoma, adherent)	0.242	0.0447
MHH-CALL-2 (B-cell leukaemia, suspension)	0.995	> 4
MKN7 (stomach, adherent)	0.882	> 4

Cell Line	AUC	IC50 [µM]
MOLM-16 (acute myeloid leukaemia, suspension)	0.858	2.67
MOLT-16 (T-cell lymphoblastic leukaemia, suspension)	0.931	> 4
NCC010 (kidney, adherent)	0.937	> 4
NCI-H146 (small cell lung carcinoma, suspension)	0.989	> 4
NCI-H508 (large intestine, semi-adherent)	0.866	> 4
NCI-H835 (lung carcinoid, suspension)	0.981	> 4
NCI-H929 (myeloma, suspension)	0.759	1.21
NCI-H1105 (small cell lung carcinoma, suspension)	0.988	> 4
NCI-H1341 (small cell lung carcinoma, suspension)	0.934	> 4
NCI-H1650 (lung adenocarcinoma, adherent)	0.932	> 4
NCI-H2066 (small cell lung carcinoma, adherent)	0.903	> 4
NCI-N87 (stomach, adherent)	0.975	> 4
PWR-1E (prostate, adherent)	0.935	> 4
RCH-ACV (B-cell leukaemia, suspension)	0.987	> 4
RH-18 (rhabdomyosarcoma, adherent)	0.909	> 4
SK-GT-2 (stomach, adherent)	0.897	> 4
SK-MEL-31 (melanoma, adherent)	0.949	> 4
SUP-B8 (B-cell leukaemia, suspension)	0.971	> 4
TC-YIK (cervix, suspension)	0.885	3.36

— the supplement of paper PMC4967469
